# Laboratory results: the supplement of paper PMC9446081
# Out of some 39,000 compounds screened, about 220 (0.56%) showed activity. This is one part of the list.
# Tested on: Escherichia coli K-12 BW25113
# Assay: relative growth (OD600 normalised to plate interquartile mean) (fraction); higher = less growth inhibition, active = 0.2 or less
# Settings: 50 µM; LB; incubation time: overnight (16-24 h)
# 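Also: static incubation at 37 °C against the wild-type strain, values averaged over two biological replicates.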
row,Structure (SMILES),relative growth
1,COc1ccc(NC(=O)Nc2ccc3c(c2)C(=O)N([C@H](C)CO)C[C@@H](C)[C@H](CN(C)S(C)(=O)=O)O3)cc1,inactive: 1.02
2,Cc1ccc(S(=O)(=O)Nc2ccc3c(c2)CC(=O)N([C@@H](C)CO)C[C@@H](C)[C@H](CN(C)C(=O)Nc2cccc4ccccc24)O3)cc1,inactive: 0.992
3,Cc1ccc(S(=O)(=O)N2C[C@H](O)COC[C@H]3O[C@H](CC(=O)NCc4ccc(Cl)c(Cl)c4)CC[C@@H]32)cc1,inactive: 0.985
4,C[C@H](CO)N1C[C@H](C)[C@H](CN(C)CC2CCCCC2)OCCCC[C@H](C)Oc2ccc(NC(=O)CCC(F)(F)F)cc2C1=O,inactive: 0.963
5,COc1ccccc1S(=O)(=O)N[C@@H]1C=C[C@@H](CC(=O)N2CCOCC2)O[C@H]1CO,inactive: 0.987
6,Cc1cc(C(=O)Nc2cccc3c2O[C@@H](CN(C)S(=O)(=O)c2ccc(F)cc2)[C@@H](C)CN([C@H](C)CO)C3=O)n(C)n1,inactive: 0.979
7,Cc1noc(C)c1NC(=O)Nc1ccc2c(c1)CC(=O)N([C@@H](C)CO)C[C@@H](C)[C@@H](CN(C)Cc1ccc(C(F)(F)F)cc1)O2,inactive: 0.993
8,CCCN1C[C@@H](C)[C@@H](OC)CN(C)C(=O)c2ccc(NS(=O)(=O)c3cn(C)cn3)cc2OC[C@H]1C,inactive: 1.01
9,C[C@H]1CN([C@@H](C)CO)C(=O)c2cccc(NC(=O)Nc3ccc(F)cc3)c2O[C@@H]1CN(C)Cc1ccc(-c2ccccc2)cc1,inactive: 0.969
10,C[C@H](CO)N1C[C@H](C)[C@H](CN(C)CC2CCCCC2)Oc2ccc(NS(=O)(=O)c3cn(C)cn3)cc2C1=O,inactive: 1.01
11,COc1ccc(S(=O)(=O)Nc2ccc3c(c2)C(=O)N([C@H](C)CO)C[C@H](C)[C@H](CN(C)C(=O)Nc2c(C)noc2C)OCCCC[C@H](C)O3)cc1,inactive: 1.01
12,C[C@H](CO)N1C[C@H](C)[C@@H](CN(C)C(=O)CN(C)C)Oc2cc(C#Cc3ccccc3)ccc2S1(=O)=O,inactive: 0.985
13,COc1ccc2c3c([nH]c2c1)[C@H](CO)N(Cc1ccncc1)C[C@]13CCN(CC1)Cc1ccc(cc1)-c1ccccn1,inactive: 0.987
14,CN(C)C(=O)C[C@@H]1CC[C@H](NC(=O)C2CC2)[C@@H](CO)O1,inactive: 1.02
15,NC(=O)c1ccc[n+]([C@@H]2O[C@H](COP(=O)(O)OP(=O)(O)OC[C@H]3O[C@@H](n4cnc5c(N)ncnc54)[C@H](O)[C@@H]3O)[C@@H](O)[C@H]2O)c1,inactive: 1.02
16,Cc1nn(CC(=O)NC(C)C)c(C)c1[N+](=O)[O-],inactive: 0.993
17,C[C@@H]1CN([C@H](C)CO)C(=O)c2cccc(N(C)C)c2O[C@@H]1CN(C)S(C)(=O)=O,inactive: 0.987
18,Cc1noc(C)c1NC(=O)Nc1cccc2c1O[C@@H](CN(C)S(=O)(=O)c1cn(C)cn1)[C@H](C)CN([C@H](C)CO)C2=O,inactive: 0.932
19,CC(=O)N1CCc2c(sc(NC(=O)CN3C(=O)CCC3=O)c2C(N)=O)C1,inactive: 0.98
20,CO[C@H]1CN(C)C(=O)c2cc(NS(C)(=O)=O)ccc2OC[C@H](C)N(C(=O)C2CCCCC2)C[C@H]1C,inactive: 0.958

row,Structure (SMILES),relative growth
1,CNC[C@H]1OCCCC[C@H](C)Oc2ccc(NS(=O)(=O)c3cn(C)cn3)cc2C(=O)N([C@@H](C)CO)C[C@H]1C,inactive: 0.989
2,COc1ccc(S(=O)(=O)Nc2ccc3c(c2)C(=O)N([C@@H](C)CO)C[C@@H](C)[C@@H](CN(C)C(=O)Nc2ccc(C(F)(F)F)cc2)OCCCC[C@H](C)O3)cc1,inactive: 1.03
3,CN1CCN2c3ncccc3Cc3ccccc3C2C1 (stereo not drawn),inactive: 0.988
4,CO[C@@H]1CN(C)C(=O)c2ccc(NS(C)(=O)=O)cc2OC[C@@H](C)N(C(=O)C2CCCCC2)C[C@H]1C,inactive: 0.98
5,Cc1noc(C)c1NC(=O)Nc1cccc2c1O[C@H](CN(C)Cc1ccc(Cl)c(Cl)c1)[C@H](C)CN([C@@H](C)CO)C2=O,inactive: 0.978
6,C[C@H]1CCCCO[C@@H](CN(C)Cc2ccc(C(F)(F)F)cc2)[C@@H](C)CN([C@@H](C)CO)C(=O)c2cc(NC(=O)Nc3ccccc3)ccc2O1,inactive: 1.02
7,Cc1noc(C)c1NC(=O)N(C)C[C@H]1Oc2c(NC(=O)NC(C)C)cccc2C(=O)N([C@H](C)CO)C[C@H]1C,inactive: 0.99
8,C[C@@H]1CCCCO[C@H](CN(C)C(=O)Nc2ccccc2)[C@H](C)CN([C@@H](C)CO)C(=O)c2cc(NC(=O)Nc3ccccc3)ccc2O1,inactive: 1.03
9,O=C(O)C1C(=CCO)OC2CC(=O)N21.[LiH] (stereo not drawn),inactive: 0.912
10,Cc1ccc(S(=O)(=O)Nc2cccc3c2O[C@@H](CN(C)Cc2ccc(-c4ccccc4)cc2)[C@H](C)CN([C@H](C)CO)C3=O)cc1,inactive: 1.04
11,O=C(C[C@H]1C=C[C@@H](NC(=O)Cc2ccccn2)[C@H](CO)O1)NCCc1ccncc1,inactive: 0.895
12,C[C@@H]1CN([C@@H](C)CO)C(=O)c2cc(NC(=O)CCC(F)(F)F)ccc2O[C@@H](C)CCCCO[C@@H]1CN(C)Cc1ccc2c(c1)OCO2,inactive: 1.01
13,Cn1c(O)cc(=O)n(C)c1=O,inactive: 1
14,C[C@@H]1CCCCO[C@H](CN(C)C(=O)Nc2ccc(F)cc2)[C@@H](C)CN([C@H](C)CO)C(=O)c2cc(NS(=O)(=O)c3ccc(Cl)cc3)ccc2O1,inactive: 0.933
15,C[C@@H]1CCCCO[C@@H](CN(C)CC2CCCCC2)[C@H](C)CN([C@H](C)CO)C(=O)c2cc(NC(=O)C3CCCCC3)ccc2O1,inactive: 1.01
16,C[C@H](CO)N1C[C@H](C)[C@H](CN(C)Cc2ccc(C(F)(F)F)cc2)Oc2ccc(NS(=O)(=O)c3ccc(Cl)cc3)cc2C1=O,inactive: 1.01
17,COc1ccccc1CNC(=O)C[C@H]1C[C@H]2c3cc(NC(=O)Nc4ccc(C(F)(F)F)cc4)ccc3O[C@H]2[C@@H](CO)O1,inactive: 1.01
18,CC1(C)CC[C@]2(C(=O)O[C@H]3O[C@@H](CO)[C@@H](O)[C@@H](O)[C@@H]3O)CC[C@]3(C)C(=CC[C@H]4[C@@]5(C)C[C@@H](O)[C@H](O[C@H]6O[C@H](C(=O)O)[C@@H](O)[C@@H](O)[C@@H]6O)C(C)(C)[C@@H]5CC[C@]43C)[C@@H]2C1,inactive: 0.992
19,C[C@@H]1CN([C@@H](C)CO)C(=O)c2c(c3ccccc3n2C)-c2ccccc2CO[C@@H]1CN(C)S(=O)(=O)c1ccc(C(F)(F)F)cc1,inactive: 1.02
20,C[C@@H]1CN([C@@H](C)CO)C(=O)c2cc(-c3ccncc3)cnc2O[C@H]1CN(C)S(=O)(=O)c1ccccc1,inactive: 0.979

row,Structure (SMILES),relative growth
1,C[C@@H]1CN([C@H](C)CO)C(=O)c2cc(-c3cccc(C(=O)N(C)C)c3)cnc2O[C@@H]1CN(C)C(=O)Cc1ccccn1,inactive: 0.998
2,C[C@H](CO)N1C[C@H](C)[C@@H](CN(C)C(=O)NC2CCCCC2)OCCCC[C@H](C)Oc2ccc(NC(=O)Nc3ccc(C(F)(F)F)cc3)cc2C1=O,inactive: 0.988
3,O=C(Nc1ccc(-c2ccccc2)cc1)[C@H]1C[C@@H]1c1ccccc1,inactive: 1.06
4,C[C@H](CO)N1C[C@H](C)[C@H](CN(C)Cc2ccc3c(c2)OCO3)OCCCC[C@H](C)Oc2ccc(NS(=O)(=O)c3ccc(Cl)cc3)cc2C1=O,inactive: 1.01
5,COc1ccc(NC(=O)N(C)C[C@H]2OCCCC[C@H](C)Oc3ccc(NC(=O)Cc4ccccc4)cc3C(=O)N([C@H](C)CO)C[C@H]2C)cc1,inactive: 1.02
6,CO[C@@H]1CN(C)C(=O)c2cc(NS(=O)(=O)CC(F)(F)F)ccc2OC[C@H](C)N(Cc2nccs2)C[C@@H]1C,inactive: 0.999
7,C[C@H](CO)N1C[C@H](C)[C@H](CN(C)C(=O)Nc2ccc(F)cc2)Oc2c(NC(=O)c3cnccn3)cccc2C1=O,inactive: 1
8,OC[C@H]1O[C@H](n2cnc3cncnc32)[C@@H](O)[C@@H]1O,inactive: 0.973
9,C[C@H]1CN([C@@H](C)CO)C(=O)Cc2cc(NC(=O)Cn3cnnn3)ccc2O[C@H]1CN(C)S(=O)(=O)c1ccccc1,inactive: 0.994
10,O=C1CC[C@H](C(=O)O)N1,inactive: 1.01
11,C[C@@H]1CN([C@H](C)CO)C(=O)c2cc(NS(=O)(=O)c3cn(C)cn3)ccc2O[C@H]1CN(C)CC1CCCCC1,inactive: 0.988
12,C[C@@H]1CN([C@@H](C)CO)C(=O)Cc2cc(NC(=O)Nc3ccc(C(F)(F)F)cc3)ccc2O[C@@H]1CN(C)Cc1ccc(Oc2ccccc2)cc1,inactive: 1.02
13,Cc1noc(C)c1NC(=O)N(C)C[C@H]1OCCCC[C@@H](C)Oc2ccc(NC(=O)Cc3ccccc3)cc2C(=O)N([C@@H](C)CO)C[C@@H]1C,inactive: 1.01
14,C[C@@H]1CCCCO[C@H](CN(C)C(=O)Nc2ccc(F)cc2)[C@@H](C)CN([C@H](C)CO)C(=O)c2cc(NC(=O)Nc3cccc4ccccc34)ccc2O1,inactive: 1.04
15,Cc1ccccc1S(=O)(=O)N1C[C@@H](O)COC[C@H]2O[C@H](CC(=O)NCCc3ccncc3)CC[C@@H]21,inactive: 0.983
16,O=C(C[C@@H]1C[C@@H]2c3cc(NS(=O)(=O)c4ccc(F)cc4)ccc3O[C@@H]2[C@H](CO)O1)NCCc1ccccc1,inactive: 1.04
17,CN1CCN(C(=O)C[C@@H]2CC[C@H]3[C@@H](COC[C@@H](O)CN3S(=O)(=O)c3cccc(Cl)c3)O2)CC1,inactive: 1.03
18,COc1cccc(-c2cnc3c(c2)C(=O)N([C@H](C)CO)C[C@H](C)[C@H](CN(C)S(=O)(=O)c2ccc(F)cc2)O3)c1,inactive: 1
